In all, about 110,000 compounds went through this assay and about 230 (0.21%) showed an effect of 50% or more. This is one part of the list.

The results in this text go back to paper PMC6919601, “Identification of Plasmodium dipeptidyl aminopeptidase allosteric inhibitors by high throughput screening” (PLoS ONE, 2019).
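Note: 30 min substrate incubation versus DMSO and 10 µM JCP410 controls.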

For the experiment, the target named is DPAP1 (Plasmodium falciparum, UniProt Q8IIJ9). As to the kind of experiment: primary screen, percent inhibition; read by cleavage of a fluorogenic dipeptide substrate; higher = more effect of the substance. The arrangement: species or system P. falciparum D10 trophozoite lysates; single well.
Chain of DPAP1 (Q8IIJ9 whole entry, looked up): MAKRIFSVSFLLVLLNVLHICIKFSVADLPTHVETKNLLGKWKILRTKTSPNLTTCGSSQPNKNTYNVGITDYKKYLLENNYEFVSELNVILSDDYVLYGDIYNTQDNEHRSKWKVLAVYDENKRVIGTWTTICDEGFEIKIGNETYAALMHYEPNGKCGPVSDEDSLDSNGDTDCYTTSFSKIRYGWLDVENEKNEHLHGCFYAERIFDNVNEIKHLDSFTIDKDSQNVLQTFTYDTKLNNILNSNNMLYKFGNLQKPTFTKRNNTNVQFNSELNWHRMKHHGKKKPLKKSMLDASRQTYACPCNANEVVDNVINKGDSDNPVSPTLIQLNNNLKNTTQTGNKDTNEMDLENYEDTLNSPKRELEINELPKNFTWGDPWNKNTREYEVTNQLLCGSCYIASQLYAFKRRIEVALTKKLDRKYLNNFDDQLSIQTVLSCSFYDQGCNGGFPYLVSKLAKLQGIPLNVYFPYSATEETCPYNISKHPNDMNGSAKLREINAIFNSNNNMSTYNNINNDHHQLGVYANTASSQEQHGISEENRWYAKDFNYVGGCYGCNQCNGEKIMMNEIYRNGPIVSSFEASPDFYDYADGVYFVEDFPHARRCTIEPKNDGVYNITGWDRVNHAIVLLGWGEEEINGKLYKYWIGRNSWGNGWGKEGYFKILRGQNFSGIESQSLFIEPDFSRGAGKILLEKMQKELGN
As for `CC(C)(Oc1ccc(Cl)cc1)C(=O)NCc1nc(-c2ccccc2)no1`, the “% Inhibition @ 10 uM” value is -6.72%.
For the molecule `Cc1cc(C)c(Cn2c(C)c(CNCCc3ccccc3)c(C(=O)O)c2C)c(C)c1`, the “% Inhibition @ 10 uM” value is -0.23%.
For `CC(=O)N1CCC(NCc2ccco2)CC1` the value was 4.9%; for `Fc1ccc(SCCc2ccncc2)cc1`, 0.0345%; for `COc1ccccc1C1NC(C(=O)O)Cc2c1[nH]c1ccccc21` (centres unmarked), -0.341%.
Then `COc1ccc(CCN(Cc2nc(-c3ccccc3)no2)Cc2nc(-c3ccccc3)no2)cc1OC`, with -0.0626%; and `CCOc1ccc(CCNC(=O)CCCN2C(=O)CSc3nc(C)cc(C)c32)cc1OCC`, with -0.637%.
On to `O=C(Nc1ccc(F)cc1F)c1cc2ccccc2oc1=O`, for which the “% Inhibition @ 10 uM” value amounted to 6.8%.
Then `CCCCC1CC1C(=O)Nc1ncc2c(n1)CC(C)(C)CC2=O` (centres unmarked), with -0.687%; and `COc1cccc2c1OC1(C=C2)c2ccccc2-c2ccccc2N1C` (centres unmarked), with 5.46%.
Regarding `O=C(Nc1cc(Cl)cc(Cl)c1)c1ccc(Cl)cc1`, the “% Inhibition @ 10 uM” value is given as 6.41%.
Then `CCC(Oc1ccccc1)C(=O)N1CCN(C(=O)C(CC)Oc2ccccc2)CC1` (centres unmarked), with -1.88%; and `O=C(O)CCC(=O)N1Cc2ccccc2Oc2ncccc21`, with -3.53%.
Then `CC1CCc2c(sc3nnn(CCCCN4C(=O)c5ccccc5C4=O)c(=O)c23)C1` (centres unmarked), with 2.41%.
For `NC(=O)c1cc(S(=O)(=O)N2CCN(c3ccccn3)CC2)cs1` the value was -6.86%; for `CCOC(=S)/N=C(\NS(=O)(=O)c1ccc(C)cc1)c1ccccc1`, 15.7%; for `CCOC(=O)N1CCN(C(=O)c2ccc(CS(=O)(=O)c3ccccc3C)o2)CC1`, 3.77%.
For `O=C(COc1ccc(Br)cc1Cl)Nc1ccc(S(=O)(=O)N2CCCCC2)cc1`, the “% Inhibition @ 10 uM” value was 1.52%.
Then `CSc1nc(N)nc(SC/C=C/c2ccccc2)c1C#N`, with -0.132%; and `COC(=O)[C@@]1(C)CC[C@]2(C)CC[C@]3(C)C(=CC(=O)C4[C@@]5(C)CCC(=O)C(C)(C)C5CC[C@]43C)C2C1` (some centres unmarked), with 3.76%.
For `Cc1ccc2nc(NC(=O)C3CCN(S(=O)(=O)c4c(C)noc4C)CC3)sc2c1` the value was -3.28%; for `CCOC(=O)c1cc2c(=O)n3ccccc3nc2n(C)/c1=N\C(=O)c1ccc2c(c1)OCO2`, 9.37%.
Then `Cc1onc(-c2ccccc2Cl)c1C(=O)Nc1ccccc1F`, with -12.1%.
Consider `CC(C)CCSc1nc2c(c(=O)[nH]c(=O)n2C)n1C(C)C`, for which the “% Inhibition @ 10 uM” value was -0.941%.
For `CCN(CC)c1nc(Cl)nc(N2CCOCC2)n1` the value was -0.712%.
For `CCOCCCNc1nc2c(S(=O)(=O)c3ccc(CC)cc3)nnn2c2ccccc12` the value was -1.37%; for `Cc1ccc(NC(=O)c2ccc(-c3ccccc3)cc2)nc1`, -2.27%.
Take `CCCn1c2ccccc2c2cnn(CC(=O)Nc3cc(-c4cccc(F)c4)no3)c(=O)c21`: the “% Inhibition @ 10 uM” value is -2.96%.
For `COc1ccc(-c2c3c(nc4sc(C(=O)NCC5CCCO5)c(N)c24)CC(C)(C)CC3=O)cc1` (centres unmarked) the value was -5.74%; for `CCOc1ccc(-c2ccc(OCC)nc2)cn1`, -6.41%; for `OC(/C=C/c1ccccc1)(Cn1ccnc1)c1ccncc1` (centres unmarked), 1.08%.
Then `Cc1[nH]nc(O)c1C(c1ccc(-c2ccccc2C(=O)O)o1)c1c(O)n[nH]c1C`, with -2.14%.
In the case of `CN(C)c1cc[n+](Cc2c(Cl)cccc2Cl)cc1`, the “% Inhibition @ 10 uM” value is listed as -6.34%.
For `Cc1cc(OCC(=O)N(C)C2CCCCC2)cc(C)c1Cl` the value was -0.351%; for `CN(c1cccc(NC(=O)c2ccc(Cl)cc2)c1)S(C)(=O)=O`, 0.873%.
For `CC(=O)Nc1ccc(C2C(C#N)=C(N)Oc3cc(N(C)C)ccc32)cc1` (centres unmarked) the value was -5.94%; for `COc1ccc2c(CNCCC3=CCCCC3)c(C(=O)O)n(Cc3ccc(F)cc3)c2c1`, -1.53%; for `CC1CC2=C(CC1C1OCC(CN3CCCCC3)O1)C(C)(C)CCC2` (centres unmarked), -1.91%.
Then `CCc1ccc(-c2[nH]nc3nc(-c4ccc(OC)c(OC)c4OC)cc(C(=O)O)c23)cc1`, with 0.526%; and `CCN(CC)CCCCOc1cccc(Cl)c1`, with 3%.
In the case of `COc1ccc(OC)c(S(=O)(=O)N2CCCC2C(=O)NCCOc2ccccc2)c1` (centres unmarked), the “% Inhibition @ 10 uM” value is reported as 2.77%.
For `Cc1nc(CNS(=O)(=O)c2cccnc2)cs1` the value was 0.953%; for `COc1ccc(-c2nc3sccn3c2C=O)cc1`, -0.703%; for `CC(Sc1nc(-c2ccccc2)cc(C(F)(F)F)n1)C(=O)NCc1ccncc1` (centres unmarked), 3.04%.
For `Cc1ccc(S(=O)(=O)Nc2sc3c(c2C(N)=O)CCC3)cc1C` the value was 2.09%; for `CC(=O)Nc1ccc(N2C(=O)CC(NCCc3cccc(Cl)c3)C2=O)cc1` (centres unmarked), -3.01%; for `O=C1NC(c2cccc(Oc3ccccc3)c2)Nc2ccccc21` (centres unmarked), -5.06%.
Then `COc1cc(/C=N/c2oc(C)c(C)c2C#N)cc(Br)c1O`, with 1.76%.
For the molecule `Cc1cccc(C)c1NC(=O)CC1SC(NC2CCCCC2)=NC1=O` (centres unmarked), the “% Inhibition @ 10 uM” value is given as 2.92%.
Then `CCOC(=O)c1sc(N(Cc2nc(-c3cccc(C)c3)oc2C)C(C)=O)c(C#N)c1C`, with 4.84%; and `CO/C(O)=C1\C(C)=NC2=C(C(=O)c3ccccc32)C1c1ccc(Br)o1` (centres unmarked), with -3.14%; and `CC(c1ccccc1)c1nnc(NC(=O)C2CCCCC2)s1` (centres unmarked), with 4.86%.
`CC(Oc1ccccc1)C(=O)NCc1nc(-c2ccccc2)no1` (centres unmarked): the “% Inhibition @ 10 uM” value was -6.72%.
For `CC1CC(=O)NN=C1c1ccc(N)c([N+](=O)[O-])c1` (centres unmarked) the value was 3.58%.
As to `COc1ccc(OC)c(-n2c(SCC(=O)N3CCCCCC3)nnc2-c2c[nH]c3ccccc23)c1`, the “% Inhibition @ 10 uM” value came to 2.12%.
Then `C=CCOc1ccccc1CN1CCC(C(N)=O)CC1`, with -7.17%; and `Cc1cccc2c3c([nH]c12)CCN(C)C3`, with 0.726%; and `CCOC(=O)c1cn2ncc(C(=O)OCC)c2nc1C`, with -2.83%.
Then `Cc1cccc(-n2ncc3c(NCCCN(C)C)ncnc32)c1`, with 5.23%; and `COc1cc(C(=O)Nc2nc(-c3ccc(Cl)cc3)cs2)cc(OC)c1OC`, with 5.24%.
Take `CC(=O)N1CCN(Cc2cccc(Cl)c2Cl)CC1`: the “% Inhibition @ 10 uM” value is -0.446%.
Turning to `CC1CCCN(C(=O)Cn2cc(S(=O)(=O)N3CCCC3)c(S(=O)(=O)N3CCCC3)c2)C1` (centres unmarked), the “% Inhibition @ 10 uM” value stood at 5.66%.
Then `O=C1COc2ccccc2N1Cc1ccccc1`, with 2.23%; and `Cc1nc2c(c(C)c1CCC(=O)NC(C)CCc1ccco1)c(=O)n(C)c(=O)n2C` (centres unmarked), with -8.91%.
Then `Cc1ccc(CNC(=O)COc2ccc(Br)c(C)c2)cc1`, with 1.83%; and `Cc1cccc(N2C(=O)c3ccc(C(=O)OC(C)C)cc3C2=O)c1`, with 2.7%; and `CN1C2=C(C(=O)CCC2)C(c2cc(Cl)ccc2OCC(=O)O)C2=C1CCCC2=O`, with -4.16%.
Then `Cc1ccc2nc(O)nc(-c3ccccc3)c2c1`, with -10.2%; and `Cc1ccccc1C(=O)Nc1sc2c(c1C(=O)N1CCOCC1)CCC(C(C)(C)C)C2` (centres unmarked), with -1.4%; and `COc1ccc(-c2ccc(CCC(=O)O)n2Cc2ccco2)cc1`, with 0.812%.
As to `COCCNC(=O)C1CCCCN1S(=O)(=O)c1ccc(F)cc1` (centres unmarked), the “% Inhibition @ 10 uM” value is on record as 0.414%.
Then `COc1ccc(C2CC(=O)c3sc(N)nc3C2)cc1` (centres unmarked), with 2.69%; and `COc1ccc(C(=O)O)cc1COc1ccc(Br)cc1`, with 5.87%; and `CCc1ccccc1NC(=O)c1cccc(OC)c1`, with -4.59%.
Then `CCOc1ccc(C(=O)NCC23CC4CC(C2)CC(CNC(=O)c2ccc(OCC)cc2)(C4)C3)cc1`, with -0.703%; and `CC1C(c2cccs2)=[N+]([O-])C(C)(c2ccc(Cl)cc2)N1O` (centres unmarked), with 5.05%.
With `CCOC(=O)N1CCN(C2CCN(CC)CC2)CC1`, the “% Inhibition @ 10 uM” value is on record as -0.603%.
Then `Cc1ccc(C)c(OCc2ccc(C(=O)O)o2)c1`, with -3.13%; and `CCCSc1nc2ccc(C)cc2cc1C#N`, with -0.864%.
Turning to `CCNc1nc2nc(O)cc(O)c2s1`, the “% Inhibition @ 10 uM” value stood at 3.39%.
Then `CC(=O)N1CCC(N2CCN(C/C=C/c3ccccc3)CC2)CC1`, with -0.132%.
For `Cc1ccc(C(=O)Nc2ccccc2C(N)=O)o1` the value was -6.24%.
For `COc1cccc(Cn2c(C)c(CNCCc3ccccc3C)c(C(=O)O)c2C)c1` the value was -7.36%; for `Cc1ccc(CN(Cc2ccco2)C(=O)c2ccccc2Br)cc1`, -0.45%; for `CCOC(=O)N1CCC(NCCc2ccccc2F)CC1`, -3.27%.
In the case of `CCC(C)c1ccc(NC(=O)c2ccc(Br)o2)cc1` (centres unmarked), the “% Inhibition @ 10 uM” value was found to be 1.15%.
For `Cc1cc(NC(=O)C2CCCN2S(=O)(=O)c2ccc(Cl)cc2)ccc1Br` (centres unmarked) the value was 0.291%; for `COC(=O)C1=CN(CCC23CC4CC(CC(C4)C2)C3)C=C(C(=O)OC)C1c1ccc2c(c1)OCO2`, -4.04%.
With `CCSc1nc2c(c(=O)n(C)c(=O)n2C)n1Cc1c(F)cccc1Cl`, the “% Inhibition @ 10 uM” value is recorded as -2.77%.
Then `O=C(Cc1ccccc1)N1CCC(c2ccccc2)C1` (centres unmarked), with -3.38%; and `CC1CCc2c(sc(NC(=O)Cn3c(-c4nonc4N)nc4ccccc43)c2C#N)C1` (centres unmarked), with -4.04%.
Then `Cc1ccc(S(=O)(=O)NCc2ccc(C(=O)NCCC(C)C)cc2)cc1`, with -5.67%.
Then `O/N=C(\C=C\c1ccccc1)c1ccccc1`, with -0.128%; and `CC1=C(C(=O)NCC(C)c2ccccc2)C2(CCCCC2)OC1=O` (centres unmarked), with -1.89%.
For `CC1=CC(c2ccc(Cl)cc2)n2nc(N3C(=O)c4ccccc4C3=O)nc2N1` (centres unmarked), the “% Inhibition @ 10 uM” value was determined as 2.31%.
For `CSc1ncc(C(=O)NCc2ccc3c(c2)OCO3)c(C)n1` the value was -2.15%.
`Cc1ccc(C(=O)NC(C)c2ccccc2)o1` (centres unmarked): the “% Inhibition @ 10 uM” value is -3.71%.
Then `CC(CCc1ccco1)NC(=O)c1cc2c(-c3ccccc3F)nn(C)c2s1` (centres unmarked), with 1.24%; and `Cc1ccc(Cl)cc1S(=O)(=O)N1CCC(C(=O)O)CC1`, with -3.08%.
Then `c1cn2c3c(n1)CCCc3c1cc(C34CC5CC(CC(C5)C3)C4)ccc12`, with -6.71%.
For `Cc1ccc2nc(NC(=O)Nc3ccc(F)cc3)sc2c1` the value was 5.49%.
